Here are results for 25 compounds from US7592316B2, “Peptides as NS3-serine protease inhibitors of hepatitis C virus” (Schering Corporation, priority 2000, dated 2009).

*1 amine or outer side, *2 acyl side, *3 side chain or, on linkers, in order; H or OH if unused. Where a SMILES comes first, the peptide text is derived from it. [ ]: non-standard residue; d: D form. The star is where a group is joined. ξ: configuration not given here. Pro(3R,4S-CMe2) = CC1(C)[C@@H]2[C@@H](C(=O)O)NC[C@@H]21; ξ(3-Amino-2-oxopentanoyl) = CCC(N[*:1])C(=O)C(=O)[*:2]; Pro(trans-3-OtBu) = CC(C)(C)O[C@H]1CCN[C@@H]1C(=O)O; Pro(4R-isopentyl) = CC(C)CC[C@H]1CN[C@H](C(=O)O)C1; Nleψ(COCO) = CCCC[C@H](N[*:1])C(=O)C(=O)[*:2]; X67 = O=C(C(=O)[*:2])C(CC1CC1(F)F)N[*:1]; X33 = CCCC[C@@H](N[*:1])C(=O)C(=O)[*:2]; X19 = CCC[C@@H](N[*:1])C(=O)C(=O)[*:2]; X12 = CCC[C@H](N[*:1])C(=O)C(=O)[*:2]; X32 = O=C(C(=O)[*:2])C(CC1CCC1)N[*:1]; Cyclohexanecarbonyl = O=C(C1CCCCC1)*; Cyclopentanecarbonyl = O=C(C1CCCC1)*; Cyclohexylacetyl = O=C(CC1CCCCC1)*; Val(3-OH) = CC(C)(O)[C@H](N)C(=O)O; X4 = CCCCC(N[*:1])C(=O)C(=O)[*:2]; Hyp = O=C(O)[C@@H]1C[C@@H](O)CN1; X2 = CCCC(N[*:1])C(=O)C(=O)[*:2]; Aad = N[C@@H](CCCC(=O)O)C(=O)O; CH2CO2tBu = CC(C)(C)OC(=O)C*; Chg = N[C@H](C(=O)O)C1CCCCC1; Phg = N[C@H](C(=O)O)c1ccccc1; Tle = CC(C)(C)[C@H](N)C(=O)O; ξChg = NC(C(=O)O)C1CCCCC1; ξPhg = NC(C(=O)O)c1ccccc1; Carboxymethyl = O=C(O)C*; Boc = CC(C)(C)OC(=O)*; ξNle = CCCCC(N)C(=O)O; Bz = O=C(c1ccccc1)*; Bn = c1ccc(C*)cc1; OtBu = CC(C)(C)O*; tBu = CC(C)(C)*

One experiment deals with HCV NS3/NS4A protease (strain 1a) (Hepatitis C virus genotype 1a, UniProt P27958). Put plainly: biochemical. The conditions noted are these: Compounds prepared by Solid Phase Synthesis, Table 3; read-out: Ki* CLASS.
In the case of `CCCC(NC(=O)[C@@H]1C[C@@H](OCc2ccccc2)CN1C(=O)C(NC(=O)c1ccccc1)C1CCCCC1)C(=O)C(=O)NCC(=O)NC(C(N)=O)c1ccccc1` (stereo partly shown) (Bz-[ξChg][Hyp](Bn)[X2]G[ξPhg]-NH2), the Ki lay within 101 to 1000 nM.
With `CCCC(NC(=O)[C@@H]1C[C@@H](OCc2ccccc2)CN1C(=O)[C@H](CCCC(=O)OC(C)(C)C)NC(=O)C1CCCCC1)C(=O)C(=O)NCC(=O)N[C@H](C(N)=O)c1ccccc1` (stereo partly shown) (Cyclohexanecarbonyl-[Aad](OtBu)[Hyp](Bn)[X2]G[Phg]-NH2), the inhibition constant Ki is more than 1000 nM.
The same measure, in the same setting: as for `CCCCC(NC(=O)C(CCCC)NC(=O)CNC(=O)C(=O)C(CCC)NC(=O)[C@@H]1C[C@@H](OCc2ccccc2)CN1C(=O)C(NC(=O)C1CCCCC1)C1CCCCC1)C(N)=O` (stereo partly shown) (Cyclohexanecarbonyl-[ξChg][Hyp](Bn)[X2]G[ξNle][ξNle]-NH2), the figure is 101 to 1000 nM; as for `CCCC(NC(=O)[C@@H]1C[C@@H](OCc2ccccc2)CN1C(=O)C(NC(=O)C1CCCCC1)C1CCCCC1)C(=O)C(=O)NCC(=O)NC(C(=O)O)c1ccccc1` (stereo partly shown) (Cyclohexanecarbonyl-[ξChg][Hyp](Bn)[X2]G[ξPhg]-OH), 101 to 1000 nM; as for `CCCCC(NC(=O)[C@@H]1C[C@@H](OCc2ccccc2)CN1C(=O)C(NC(=O)C1CCCCC1)C1CCCCC1)C(=O)C(=O)NCC(=O)NC(C(N)=O)c1ccccc1` (stereo partly shown) (Cyclohexanecarbonyl-[ξChg][Hyp](Bn)[X4]G[ξPhg]-NH2), 101 to 1000 nM.
The same measure, in the same setting: with `CCCCC(NC(=O)CNC(=O)C(=O)C(CCC)NC(=O)[C@@H]1C[C@@H](OCc2ccccc2)CN1C(=O)C(NC(=O)CC1CCCCC1)C1CCCCC1)C(N)=O` (stereo partly shown) (Cyclohexylacetyl-[ξChg][Hyp](Bn)[X2]G[ξNle]-NH2) the figure was 101 to 1000 nM; with `CCCCC(NC(=O)C(CCCC)NC(=O)CNC(=O)C(=O)C(CCC)NC(=O)[C@@H]1C[C@@H](OCc2ccccc2)CN1C(=O)C(NC(=O)CC1CCCCC1)C1CCCCC1)C(N)=O` (stereo partly shown) (Cyclohexylacetyl-[ξChg][Hyp](Bn)[X2]G[ξNle][ξNle]-NH2), 101 to 1000 nM; with `CCCC(NC(=O)[C@@H]1C[C@@H](OCc2ccccc2)CN1C(=O)C(NC(=O)CC1CCCCC1)C1CCCCC1)C(=O)C(=O)NCC(=O)NC(C(=O)O)c1ccccc1` (stereo partly shown) (Cyclohexylacetyl-[ξChg][Hyp](Bn)[X2]G[ξPhg]-OH), 1 to 100 nM.
As for `CCCCC(NC(=O)[C@@H]1C[C@@H](OCc2ccccc2)CN1C(=O)C(NC(=O)CC1CCCCC1)C1CCCCC1)C(=O)C(=O)NCC(=O)NC(C(N)=O)c1ccccc1` (stereo partly shown) (Cyclohexylacetyl-[ξChg][Hyp](Bn)[X4]G[ξPhg]-NH2), the inhibition constant (Ki) fell in the range of 1 to 100 nM.
`CCCCC(NC(=O)CNC(=O)C(=O)C(CCC)NC(=O)[C@@H]1C[C@@H](OCC(=O)OC(C)(C)C)CN1C(=O)C(NC(=O)CC1CCCCC1)C1CCCCC1)C(N)=O` (stereo partly shown) (Cyclohexylacetyl-[ξChg][Hyp](CH2CO2tBu)[X2]G[ξNle]-NH2): the Ki was more than 1000 nM.
Same read-out and setting: with `CCCCC(NC(=O)CNC(=O)C(=O)C(CCC)NC(=O)[C@@H]1C[C@@H](OCC(=O)O)CN1C(=O)C(NC(=O)CC1CCCCC1)C1CCCCC1)C(N)=O` (stereo partly shown) (Cyclohexylacetyl-[ξChg][Hyp](Carboxymethyl)[X2]G[ξNle]-NH2) the figure was more than 1000 nM.
For the compound `CCCCC(NC(=O)CNC(=O)C(=O)C(CCC)NC(=O)[C@@H]1C[C@@H](OC(C)(C)C)CN1C(=O)C(NC(=O)CC1CCCCC1)C1CCCCC1)C(N)=O` (stereo partly shown) (Cyclohexylacetyl-[ξChg][Hyp](tBu)[X2]G[ξNle]-NH2), the Ki lay within 101 to 1000 nM.
On to `CCCC(NC(=O)[C@@H]1C[C@@H](OC(C)(C)C)CN1C(=O)[C@@H](NC(=O)C1CCCC1)C1CCCCC1)C(=O)C(=O)NCC(=O)N[C@H](C(N)=O)c1ccccc1` (stereo partly shown) (Cyclopentanecarbonyl-[Chg][Hyp](tBu)[X2]G[Phg]-NH2), for which the inhibition constant Ki lay within 101 to 1000 nM.
Take `CCC(NC(=O)[C@@H]1C[C@@H](OC(C)(C)C)CN1C(=O)[C@@H](NC(=O)C1CCCC1)C1CCCCC1)C(=O)C(=O)NCC(=O)N[C@H](C(N)=O)c1ccccc1` (stereo partly shown) (Cyclopentanecarbonyl-[Chg][Hyp](tBu)[ξ(3-Amino-2-oxopentanoyl)]G[Phg]-NH2): the inhibitory constant (Ki) lay within 101 to 1000 nM.

The same experiment, now with this note: Ki* CLASS, Compounds prepared by Solid Phase Synthesis, Table 3.
In turn, `CCCC(NC(=O)[C@@H]1C[C@@H](OCc2ccccc2)CN1C(=O)[C@H](CCCC(=O)O)NC(=O)C1CCCCC1)C(=O)C(=O)NCC(=O)N[C@H](C(N)=O)c1ccccc1` (stereo partly shown) (Cyclohexanecarbonyl-[Aad][Hyp](Bn)[X2]G[Phg]-NH2) showed an inhibitory constant (Ki) of 101 to 1000 nM.

The same experiment, now with this note: Table 5; HCV NS3/NS4A protease, spectrophotometric assay, 30° C., pH 6.5; read-out: Ki* Range.
Take `CCC[C@@H](NC(=O)[C@@H]1C[C@@H](CCC(C)C)CN1C(=O)[C@@H](NC(=O)OC(C)(C)C)C(C)(C)C)C(=O)C(=O)NCC(=O)NC(C(=O)N(C)C)c1ccccc1` (stereo partly drawn) (Boc-[Tle][Pro(4R-isopentyl)][X19]G[ξPhg]-NMe2): the inhibition constant Ki was more than 1000 nM.
Regarding `CCCC[C@@H](NC(=O)[C@@H]1C[C@@H](CCC(C)C)CN1C(=O)[C@@H](NC(=O)OC(C)(C)C)C(C)(C)C)C(=O)C(=O)NCC(=O)NC(C(=O)N(C)C)c1ccccc1` (stereo partly drawn) (Boc-[Tle][Pro(4R-isopentyl)][X33]G[ξPhg]-NMe2), the inhibition constant Ki is more than 1000 nM.
On the same count and under the same terms, as for `CCCC[C@H](NC(=O)[C@@H]1[C@@H](OC(C)(C)C)CCN1C(=O)[C@@H](NC(=O)OC(C)(C)C)C(C)(C)C)C(=O)C(=O)NCC(=O)NC(C(=O)N(C)C)c1ccccc1` (stereo partly drawn) (Boc-[Tle][Pro(trans-3-OtBu)][Nleψ(COCO)]G[ξPhg]-NMe2), the figure is more than 1000 nM; as for `CCCC(NC(=O)[C@@H]1[C@@H](OC(C)(C)C)CCN1C(=O)[C@@H](NC(=O)OC(C)(C)C)C(C)(C)C)C(=O)C(=O)NCC(=O)NC(C(=O)N(C)C)c1ccccc1` (stereo partly drawn) (Boc-[Tle][Pro(trans-3-OtBu)][X2]G[ξPhg]-NMe2), more than 1000 nM.
Take `CCCCC(NC(=O)[C@@H]1[C@@H](OC(C)(C)C)CCN1C(=O)[C@@H](NC(=O)OC(C)(C)C)C(C)(C)C)C(=O)C(=O)NCC(=O)NC(C(=O)N(C)C)c1ccccc1` (stereo partly drawn) (Boc-[Tle][Pro(trans-3-OtBu)][X4]G[ξPhg]-NMe2): the Ki was more than 1000 nM.
Consider `CCC[C@H](NC(=O)[C@@H]1[C@@H](OC(C)(C)C)CCN1C(=O)[C@@H](NC(=O)OC(C)(C)C)C(C)(C)C)C(=O)C(=O)NCC(=O)NC(C(=O)N(C)C)c1ccccc1` (stereo partly drawn) (Boc-[Tle][Pro(trans-3-OtBu)][X12]G[ξPhg]-NMe2), for which the Ki is more than 1000 nM.
`CCC[C@@H](NC(=O)[C@@H]1[C@@H](OC(C)(C)C)CCN1C(=O)[C@@H](NC(=O)OC(C)(C)C)C(C)(C)C)C(=O)C(=O)NCC(=O)NC(C(=O)N(C)C)c1ccccc1` (stereo partly drawn) (Boc-[Tle][Pro(trans-3-OtBu)][X19]G[ξPhg]-NMe2): the Ki is more than 1000 nM.
The same measure, in the same setting: with `CCCC[C@@H](NC(=O)[C@@H]1[C@@H](OC(C)(C)C)CCN1C(=O)[C@@H](NC(=O)OC(C)(C)C)C(C)(C)C)C(=O)C(=O)NCC(=O)NC(C(=O)N(C)C)c1ccccc1` (stereo partly drawn) (Boc-[Tle][Pro(trans-3-OtBu)][X33]G[ξPhg]-NMe2) the figure was more than 1000 nM.

The experiment is the same for the next values; noted with them: Table 6; HCV NS3/NS4A protease, 30° C., pH 6.5; read-out: Ki*.
For the compound `CN(C)C(=O)[C@@H](NC(=O)CNC(=O)C(=O)C(CC1CCC1)NC(=O)[C@@H]1[C@@H]2[C@H](CN1C(=O)[C@@H](NC(=O)OC(C)(C)C)C(C)(C)O)C2(C)C)c1ccccc1` (stereo partly drawn) (Boc-[Val(3-OH)][Pro(3R,4S-CMe2)][X32]G[Phg]-NMe2), the inhibitory constant (Ki) fell in the range of 1 to 100 nM.
As for `CN(C)C(=O)C(NC(=O)CNC(=O)C(=O)C(CC1CC1(F)F)NC(=O)[C@@H]1[C@@H]2[C@H](CN1C(=O)C(NC(=O)OC(C)(C)C)C1CCCCC1)C2(C)C)c1ccccc1` (stereo partly drawn) (Boc-[ξChg][Pro(3R,4S-CMe2)][X67]G[ξPhg]-NMe2), the inhibition constant Ki fell in the range of 1 to 100 nM.
